# Measurements published in the supplement of paper PMC3334620.
# In all, about 33,000 sequences were measured (“E-score (-0.5 to 0.5)”: median about -0.053, highest 2% from about 0.37 on). The list shows a part of the results.
# Target: Hap1 (UniProt P0CE41)
# Assay: PBM E-score (8-mer binding enrichment) (E-score (-0.5 to 0.5)); higher = stronger / more preferred TF binding; most listed sequences are background and not binding sites
# Details: protein concentration: 200 nM; construct: GST-DNA-binding domain
# In short: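 Masliner-normalised scans of fluorescent anti-GST signal were the basis for scoring. That signal came from GST-tagged yeast transcription factors applied at about 100-200 nM to double-stranded universal all-10-mer Agilent arrays on fresh or once-stripped slides. Each ungapped eight-base word, pooled with its reverse complement, received an E-score from the Universal PBM Analysis Suite.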
# UniProt P0CE41, sequence (P0CE41 whole entry): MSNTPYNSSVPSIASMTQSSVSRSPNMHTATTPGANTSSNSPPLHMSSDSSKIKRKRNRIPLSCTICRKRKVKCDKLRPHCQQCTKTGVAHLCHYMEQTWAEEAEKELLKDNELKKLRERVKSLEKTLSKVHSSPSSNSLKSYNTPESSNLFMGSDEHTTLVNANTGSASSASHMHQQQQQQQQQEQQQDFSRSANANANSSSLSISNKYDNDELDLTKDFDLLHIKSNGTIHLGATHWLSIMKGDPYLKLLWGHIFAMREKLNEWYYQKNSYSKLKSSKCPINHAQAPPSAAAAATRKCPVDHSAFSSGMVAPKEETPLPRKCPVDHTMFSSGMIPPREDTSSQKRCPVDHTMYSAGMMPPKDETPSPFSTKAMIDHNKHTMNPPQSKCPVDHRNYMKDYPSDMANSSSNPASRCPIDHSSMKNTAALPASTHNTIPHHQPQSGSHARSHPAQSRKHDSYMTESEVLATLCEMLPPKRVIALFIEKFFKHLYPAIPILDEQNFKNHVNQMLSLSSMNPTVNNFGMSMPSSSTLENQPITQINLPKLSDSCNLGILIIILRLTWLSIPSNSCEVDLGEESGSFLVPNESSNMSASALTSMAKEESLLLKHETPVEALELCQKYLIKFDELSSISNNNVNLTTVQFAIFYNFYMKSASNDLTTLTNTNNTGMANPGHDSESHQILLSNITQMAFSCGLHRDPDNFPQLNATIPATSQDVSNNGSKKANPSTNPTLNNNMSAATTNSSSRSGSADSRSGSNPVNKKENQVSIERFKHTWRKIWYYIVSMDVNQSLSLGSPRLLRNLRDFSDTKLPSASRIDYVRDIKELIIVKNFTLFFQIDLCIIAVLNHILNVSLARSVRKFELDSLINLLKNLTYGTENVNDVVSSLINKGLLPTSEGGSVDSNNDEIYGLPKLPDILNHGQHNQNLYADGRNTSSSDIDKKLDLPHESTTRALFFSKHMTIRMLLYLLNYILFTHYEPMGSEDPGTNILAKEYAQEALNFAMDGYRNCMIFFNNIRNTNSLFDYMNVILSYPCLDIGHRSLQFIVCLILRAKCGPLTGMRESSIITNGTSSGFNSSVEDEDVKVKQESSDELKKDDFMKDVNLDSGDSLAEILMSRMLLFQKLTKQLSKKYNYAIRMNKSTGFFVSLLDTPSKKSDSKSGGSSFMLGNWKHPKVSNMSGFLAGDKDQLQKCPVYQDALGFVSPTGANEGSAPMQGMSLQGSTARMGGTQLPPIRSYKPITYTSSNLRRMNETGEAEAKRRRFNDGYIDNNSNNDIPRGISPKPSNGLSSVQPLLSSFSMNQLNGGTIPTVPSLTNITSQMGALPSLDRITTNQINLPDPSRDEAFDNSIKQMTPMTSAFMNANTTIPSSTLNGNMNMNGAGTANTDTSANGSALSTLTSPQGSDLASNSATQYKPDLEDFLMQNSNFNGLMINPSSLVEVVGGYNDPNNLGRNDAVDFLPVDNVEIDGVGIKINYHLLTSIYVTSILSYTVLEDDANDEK
row,Sequence,PBM E-score
1,AACCGAAA,0.231
2,AGTCTGCC,-0.238
3,GGTCCCAA,-0.0522
4,CGACTGGA,0.133
5,CCTGGTCA,-0.214
6,AAGGCCCA,-0.209
7,AGATCGTG,-0.158
8,CACGCATG,-0.136
9,AATCATCT,-0.0475
10,CACGGCGG,0.0847
11,CTATACGA,-0.078
12,ACCTATCA,-0.102
13,ACCTAGTA,-0.226
14,AAGATAAG,-0.138
15,TTCTGCAA,0.0316
16,ATATGCTC,0.177
17,ATACGCAT,-0.107
18,GGATGGAC,0.0142
19,CATTCTGA,-0.155
20,ACAGTTCA,-0.328
21,ATCACTGC,0.0681
22,CGCCTCCA,-0.0727
23,GAACGATC,0.0141
24,TCACTGGA,-0.122
25,CTACCCGC,0.0857

row,Sequence,PBM E-score
1,CCTCCCGA,0.0333
2,GTCTGTAA,-0.00254
3,CACCCTAA,-0.209
4,GCGCTCAA,-0.13
5,CTCGACTC,-0.162
6,GAAATTCC,0.182
7,ATGGTAAG,-0.209
8,ACCTACAA,-0.244
9,ACAGGTAC,-0.125
10,TATCAGGA,-0.1
11,CAAACATC,0.176
12,AAATAGTT,0.1
13,AACGCGCC,0.0817
14,GCGGACGC,0.0721
15,CCCATTGC,-0.105
16,AAATCAAT,-0.136
17,CGGCCCCG,0.274
18,AGGGTTAC,-0.212
19,CTATCTAA,-0.0249
20,GCAGGCAA,-0.107
21,AGTCCAGG,-0.197
22,AACAAGAT,0.0665
23,CAACCGCG,0.185
24,CGATGCAC,-0.113
25,GATCACAC,-0.172

row,Sequence,PBM E-score
1,GCTGTCAC,-0.18
2,CGGTTCCA,0.103
3,AGGGTTTC,0.083
4,CCCGGAGG,0.285
5,CACTCTAG,-0.126
6,AGAACGGG,0.0979
7,CTGAAAAA,-0.181
8,CCTTATTC,-0.214
9,ACAACGTA,-0.175
10,ACACCGCC,0.0685
11,GGCCCAAC,0.0978
12,GCTCTGAC,-0.333
13,CCGGAACA,0.376
14,ACCACATG,-0.235
15,TAAATGAA,-0.229
16,ACTTAGGC,-0.141
17,ACCCCGTC,0.19
18,CTGCCAAC,-0.212
19,AACCATGC,0.0277
20,AGTTAAAC,-0.107
21,ACGGCCAG,-0.041
22,AAAGTCAA,-0.0916
23,TCCATGCA,0.0556
24,ACTCTACA,-0.131
25,AGCACGCT,-0.269

row,Sequence,PBM E-score
1,CACTCCGA,0.212
2,ACTGTAGG,-0.118
3,ACGAAGGA,-0.175
4,AAAGGTCG,-0.09
5,TCATTAAA,0.0575
6,CTTACGTC,-0.12
7,TCTTAAAA,-0.177
8,CTTAGTAA,-0.11
9,GTTATGGA,0.0461
10,CGAGTTTC,0.00473
11,AGTGGTTG,-0.128
12,ACGGCGTG,0.0794
13,GAAGGACC,-0.00646
14,GAATAGCC,0.137
15,AACAGCGA,-0.0524
16,ATGAACAA,-0.0683
17,GAGGCTAC,-0.181
18,AATAGGCA,0.0991
19,GGACGCGA,0.0258
20,AGCTGTAT,-0.242
21,ACCTTACC,-0.0659
22,TAGCAACA,-0.026
23,CCGCTAGC,0.194
24,AAGCACCA,-0.277
25,AATGCCCG,0.245

row,Sequence,PBM E-score
1,CCTCTGCC,-0.162
2,ACCAATAG,-0.163
3,AGTGCTTG,-0.242
4,CGAATGTC,-0.0766
5,ATTTGCCG,0.267
6,CTCTCCTA,-0.244
7,AACATACG,0.183
8,GGCCTGAC,0.0959
9,ACATTAGG,-0.186
10,CACTGGAA,-0.275
11,GACAAGCA,-0.0476
12,GAGCGAGA,0.168
13,ATTCTTTC,0.0784
14,AAGCTCGT,-0.181
15,ACTGGAAA,-0.122
16,ATGTGGGA,-0.103
17,GCTGTACA,-0.0772
18,AATTTGCG,0.0815
19,GAACATTC,0.0513
20,CTTGACAA,-0.135
21,GAGGCGAA,0.0536
22,CGAGGGTC,0.056
23,AGGCGACC,0.0226
24,GATCATCA,-0.187
25,ACAGAAGT,-0.221

row,Sequence,PBM E-score
1,ATCGATCA,-0.0196
2,TCACCTGA,-0.195
3,GCCAGCCC,-0.133
4,CCGTAAAC,0.197
5,CCATGGAC,-0.129
6,CGAGCCTC,0.0621
7,CCGCAGGA,0.096
8,ACGCCTCT,-0.0953
9,CGCCGATA,0.426
10,ACCGAAGC,0.227
11,ATCGCGCG,0.204
12,ACGAAGGC,-0.0703
13,GTACAACA,-0.165
14,GTACACAA,-0.185
15,GCAGGAAC,-0.0812
16,CTATGACA,-0.239
17,CGCGTTCA,0.0396
18,ATACATGC,-0.0662
19,CATGCCGG,0.298
20,CGTCTTGA,-0.0786
21,AACAGAAA,-0.238
22,ACGATGGC,-0.107
23,TACTGGGA,-0.0481
24,TGTGTTAA,-0.148
25,CGAAAGAA,0.0698

row,Sequence,PBM E-score
1,AGTGCGAC,-0.022
2,AGCGAGGG,-0.214
3,ACCCGAGG,0.182
4,CCATTATA,0.0773
5,ATGGTTTA,0.043
6,CTCGTTGC,-0.148
7,ATGGCCAA,-0.0562
8,GTGTAATA,0.00414
9,GCGGGCCA,0.121
10,TACATTAA,-0.156
11,AGATTTAG,0.0894
12,CTCTTGTC,0.0191
13,AATTATCC,0.231
14,ACATGGTA,-0.21
15,ATCAAAGG,-0.168
16,ATGAGACC,-0.0744
17,ACGCCATC,-0.103
18,CAAGGGCA,-0.226
19,ATTCATGA,-0.271
20,CCACCGAA,0.187
21,CACTCCCG,0.0991
22,CGGACAAG,0.357
23,CTAAGAAG,-0.0922
24,CAAACCCA,-0.145
25,GAGCGACC,-0.107

row,Sequence,PBM E-score
1,GAATAGTA,-0.0351
2,CGTATCCA,-0.173
3,AGTAAATC,-0.00532
4,GGATAAGA,0.0382
5,AACACGCC,0.0448
6,GAAATGTC,0.146
7,AAGATTGA,-0.251
8,ACATTTAT,-0.149
9,GCTCTTTA,0.0639
10,ACGGACTC,0.223
11,GCAACCCC,0.0182
12,ACTGAGAA,-0.227
13,ATGACGAG,-0.168
14,ATAAATGG,-0.101
15,CGGGATTA,0.454
16,ATCGTTGA,-0.0674
17,AGCATTAG,-0.113
18,ATCGTCAA,-0.0668
19,CACCTTAG,-0.0735
20,CTCTCTGC,-0.112
21,ACCCACGT,-0.156
22,AAACGGTA,0.11
23,CAGCTCGG,0.359
24,ACACGAAT,0.0924
25,GTATCGGA,0.415

row,Sequence,PBM E-score
1,AAGCCAGA,-0.0977
2,AACCTAAT,-0.0215
3,ACTACCGA,0.161
4,ATTCCGCG,0.285
5,AATATGAA,-0.0613
6,CTGCCTGA,-0.019
7,CACGGAAA,0.295
8,ATCACAAT,-0.0674
9,TAGATGGA,-0.266
10,GAGTCCGC,0.249
11,GGACGCAC,0.0282
12,GTAGAATA,-0.126
13,TCCACGCA,-0.0804
14,ACGTGACG,-0.0633
15,CTAGCAAC,-0.0735
16,CACAAAGG,-0.168
17,AGCAGACA,-0.24
18,ACGGACAT,0.421
19,CCCAGTCC,-0.03
